Laboratory results reported in the supplement of paper PMC11417369.
± gives the standard deviation of the averaged measurements. This is one part of the list.

test system: PfAP2-G AP2 domain (GST-tagged); test: gcPBM binding intensity (ln(normalized median fluorescence intensity)); higher = stronger DNA binding
In short: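 GST-fused DNA-binding domains of P. falciparum, expressed in E. coli, were applied at about 25 μg on average for 1 h to an Agilent 4 × 180k array of primer-extended double-stranded 36-bp intergenic genomic probes and negative controls. Binding intensity is the highest Masliner-normalised natural-log median intensity across replicate spots of either probe orientation, measured with Alexa488 anti-GST antibody and a 488 nm scan.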

Sequence | gcPBM binding intensity (ln)
TTGATATGTACAGGCACACATAAATTTCACAAATAT [CACACA_site3999] | 11.2 ± 0.84
CTTTAGTTTTTAATGTGTACTGAATTTGAATAGTAG [XGTACX_site7920] | 11.2 ± 0.72
CGTATTATTTTATAAACACACAAGGGGGCATGTATA [CACACA_site6489] | 11.2 ± 0.81
GAATATTAAACAAACACACACACATATATTTATATA [CACACA_site7563] | 9.92 ± 0.014
AATGGATTGATAAGTGGTACACACATATATATTATA [XGTACX_site6086] | 11.4 ± 0.83
TATATAATATATATGACACACATATTTATATAAATA [CACACA_site4054] | 10 ± 0.26
TACATACAGATATATACACACATATATAATATATAT [CACACA_site4376] | 10 ± 0.18
TACATACCTATATACACATGCATATTTACATATATT [TGCATGCA_site206] | 10.12 ± 0.021
AAAATTAAATTATAAGCACACACATATATATATATA [CACACA_site9105] | 10.2 ± 0.55
GTAAAAATACAAAAGGTGCTCAAACAATATAATACA | 10.04 ± 0.078
GTACATTGTAAGGATGGAAAAGCTAAACATTATAAT [XGTACX_negctrl_site339] | 10.8 ± 0.3
ATATTTTTAACCAAGGACACAATTCTTGTATTGTTA [CACACA_negctrl_site1326] | 10.6 ± 0.4
AAAAGATTAAGTAGAATAATGTTCTTTCCCAACATA [GTGCAC_negctrl_site223] | 9.72 ± 0.028
ATACCAAATGAATAATGTACATACGAACATACATAT [XGTACX_site1301] | 11.1 ± 0.64
AAGGGTTATAAAAATTGTACTTTTTTTATTTTTTTT [XGTACX_site1313] | 11.4 ± 0.76
ATATATTTATATAGGTGTACATATTTTGCTATTCAA [XGTACX_site5199] | 11.6 ± 0.77
TAAGTCGTTATAAGCACACACATAAATAAAAATAAA [CACACA_site1574] | 10.3 ± 0.41
CAACCTCATAATATTTAACACACAAAATTATATGTA [CACACA_site8496] | 9.68 ± 0.13
TTATCTTAATTGTGATTATAAAGATATTCTTTCTAT [GTGCAC_negctrl_site410] | 9.51 ± 0.014
CATTTAGAATAAGGCACACATAAAGAACACTTTCCA [CACACA_site130] | 10.21 ± 0.049
AAATAAGAAAATCATAGTACATAGGAATAGAAGAAC [XGTACX_site3135] | 10.8 ± 0.42
AGTATACGCAAACACACACACACAAAAAAAAAAAAA [CACACA_site426] | 10.1 ± 0.43
TATTATATTTATATTTGTACTTAAAATATTATACAC [XGTACX_site2881] | 11.3 ± 0.9

Sequence | gcPBM binding intensity (ln)
TACGTTCTGATATATACACACCTGGTATTAATTATG [CACACA_site7113] | 10.19 ± 0.099
AGAAAAATTATATATACACACTTATATTTATATATA [CACACA_site5555] | 9.79 ± 0.071
TTTTTTTTTTTAAATTGTACTTATTTTATATTATAT [XGTACX_site1077] | 11.4 ± 0.9
AATTTCCCATATTACACACATACTATGATATATAAA [CACACA_site3834] | 10.02 ± 0.035
CAATAAACCATTTTTTGTACATAAAAATAGGTATTG [XGTACX_site1892] | 11 ± 0.59
TAAATATGTATAAATTGTACAAAATATATGAATAGT [XGTACX_site5659] | 10.8 ± 0.37
AATGTCATGATACATACACACACATACACATACACA [CACACA_site8665] | 10.1 ± 0.11
ATATCTTATTTTCCTTGTACTTATTTCATAATTACA [XGTACX_site3894] | 11.4 ± 0.81
TATTAAATATTGTAATGTACATATATAATATAATAT [XGTACX_site1809] | 11.1 ± 0.61
AAAGAGAAATTTAAATGTACATTTGTTCTAAGTGTA [XGTACX_site3602] | 10.9 ± 0.49
AATTATGAAAAATCAAGTACAAACAAAATCATAATT [XGTACX_site5665] | 11.1 ± 0.73
AAAAGATATATTATATGTACTAATTATATGATAAAT [XGTACX_site4192] | 11 ± 0.63
ATATAATGTTTCACATGTACAAACAACACAAAAAAA [XGTACX_site1899] | 10.9 ± 0.54
CATACACCCATACATACACACATACATATATATATA [CACACA_site8591] | 10.2 ± 0.11
GTTCTAAATATTATTGCATGTTGCACGTTTCTCTGT [TGCATGCA_site159] | 9.995 ± 0.007
GTGATAATTGCTTGGTGTACCCACATATATATATAT [XGTACX_site1636] | 11.6 ± 0.98
TTAAAAAAAGAAAAAAAAAAAAAAAAAAAAAAACAT [CACACA_negctrl_site475] | 9.705 ± 0.064
TATAAAAATATTTCTACACACATTAATATTTATATA [CACACA_site6661] | 9.835 ± 0.092
TATTATATTCTGCTTACACACATATATATATATATA [CACACA_site3060] | 10.4 ± 0.57
TTTTTAAATAATTGAAGTACACATTTCTCTAAGTTG [XGTACX_site2846] | 11.6 ± 1
AGTAAAAGAAAGCACACACACATGTATATAGGTATG [CACACA_site7759] | 10.21 ± 0.014
TAAAACATAAGAGACACACACACATATATATATATA [CACACA_site3643] | 10.3 ± 0.67
